The values below come from publication PMC5316855.

By UniProt entry, the sequences of proteins in these tests, tags left out.
UniProt P11802: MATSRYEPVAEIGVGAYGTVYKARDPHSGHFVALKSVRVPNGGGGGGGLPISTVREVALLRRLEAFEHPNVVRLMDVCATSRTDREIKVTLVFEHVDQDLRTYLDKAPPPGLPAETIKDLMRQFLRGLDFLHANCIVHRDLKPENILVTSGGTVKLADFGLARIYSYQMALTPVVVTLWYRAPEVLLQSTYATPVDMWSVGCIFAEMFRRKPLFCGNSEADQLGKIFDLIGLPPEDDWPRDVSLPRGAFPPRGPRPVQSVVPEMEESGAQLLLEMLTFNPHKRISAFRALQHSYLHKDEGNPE

No constants are given. Whether binding was seen depends on the method and setting. Binding seen in cells or lysates may run through a third protein. Some results given as binding are weak or reduced against the parent protein; the word gives no strength.

For one experiment, the target named is GST-CDK4 (human) (UniProt P11802). Kind of experiment: pull-down; GST-affinity pull-down from lysates of transfected HEK293T cells; 1% NP-40 buffer, glutathione-conjugated beads 2 h at 4 °C, three washes, western blot; in Figure 5i the cells were treated with palbociclib. For orientation: A western blot detects proteins with antibodies after separation by electrophoresis.

A further experiment concerns the target CDK4 (human) (UniProt P11802). Briefly: FRET or BRET; TR-FRET high-throughput screen, 384-well; GST- and Venus-Flag-fusions co-transfected in H1299 cells, whole cell lysate, anti-GST-terbium antibody, 4 °C; both fusion orientations, triplicates, three rounds; positives by FOC, P and q values against GST-only and Venus-only controls.

B1: MKK3 (protein, UniProt P46734 1-347)
chain: MESPASSQPASMPQSKGKSKRKKDLRISCMSKPPAPNPTPPRNLDSRTFITIGDRNFEVEADDLVTISELGRGAYGVVEKVRHAQSGTIMAVKRIRATVNSQEQKRLLMDLDINMRTVDCFYTVTFYGALFREGDVWICMELMDTSLDKFYRKVLDKNMTIPEDILGEIAVSIVRALEHLHSKLSVIHRDVKPSNVLINKEGHVKMCDFGISGYLVDSVAKTMDAGCKPYMAPERINPELNQKGYNVKSDVWSLGITMIEMAILRFPYESWGTPFQQLKQVVEEPSPQLPADRFSPEFVDFTAQCLRKNPAERMSYLELMEHPFFTLHKTKKTDIAAFVKEILGEDS
As to B1, the binding result with GST-CDK4 (human) and with CDK4 (human) was “binds” each time.

B2: MKK5 (protein, UniProt Q13163 1-448)
chain: MLWLALGPFPAMENQVLVIRIKIPNSGAVDWTVHSGPQLLFRDVLDVIGQVLPEATTTAFEYEDEDGDRITVRSDEEMKAMLSYYYSTVMEQQVNGQLIEPLQIFPRACKPPGERNIHGLKVNTRAGPSQHSSPAVSDSLPSNSLKKSSAELKKILANGQMNEQDIRYRDTLGHGNGGTVYKAYHVPSGKILAVKVILLDITLELQKQIMSELEILYKCDSSYIIGFYGAFFVENRISICTEFMDGGSLDVYRKMPEHVLGRIAVAVVKGLTYLWSLKILHRDVKPSNMLVNTRGQVKLCDFGVSTQLVNSIAKTYVGTNAYMAPERISGEQYGIHSDVWSLGISFMELALGRFPYPQIQKNQGSLMPLQLLQCIVDEDSPVLPVGEFSEPFVHFITQCMRKQPKERPAPEELMGHPFIVQFNDGNAAVVSMWVCRALEERRSQQGPP
Regarding B2, the binding result in the experiment with GST-CDK4 (human) and in the experiment with CDK4 (human) was “binds” in each case.
